From US12551573B2, “Compositions and methods for the targeting of PCSK9” (Scribe Therapeutics Inc., priority 2022, dated 2026)
Where two headings read alike, the source gives them in different places.

Test system: HBEGF locus
Type: cell-based, human
[1] = repressor domain in dXR, repression of the HBEGF gene, abundance of domain in library after vs before diphtheria toxin selection
[2] = high-throughput screen of dXR repression of the HBEGF gene, change in abundance of each domain in the library before and after diphtheria toxin selection

Molecule | Log2 (fold change) [1] | Log2 (fold change) [2]
DOMAIN_11643 (protein, Nomascus leucogenys) AQGYVTFEDVAVYFSQEEWRLLDEAQKLLYRNVMLENFSLLASLGLASSKTHEITQLESWEEPFMPAWEVVTSATPRGTWW | 2.3544 | –
DOMAIN_11401 (protein, listed as Suricata suricatta) DQESLTLEDVAVDFSREEWQLLAPAQKDLYRDVMLENYRNLVSLGYQASTPDALCMLERGEGPWATGEAVRGGARPETRKV | 2.6345 | –
DOMAIN_14659 (protein, listed as Acinonyx jubatus) PQESVTFKDIAVDFTQEEWALLDASQRKLYRDVMLENIGHLVSVGYRVCKSDVISQLQQGVELWREGRGFPQGVIPDRKSS | – | 4.0495
DOMAIN_11760 (protein, listed as Neophocaena asiaeorientalis) KSKSKAPVTFGDLAIYFSQEEWEWLSPIQKDLYEDVMLENYQNLVSLGLSFRRPNVITLLEKGKAPWMVEPVKRRRGLGPL | 2.8102 | –
DOMAIN_11356 (protein, listed as Sus scrofa) AHGSVMFSDVSIDFSQEEWEYLNLEQRDLYRNVMLENYSNLVSLGCFISKPDVISLLEQGKEPWKVVRKGRRPYSGLETKK | 2.6549 | –
DOMAIN_11567 (protein, listed as Zalophus californianus) GHALLTFRDVAIEFSQEEWGCLNHTQRELYRDVMLENYGHLLFLGLIVSKPDLVSFLEQTKDPWDGKRKKTVAFHPGLALS | 3.4239 | –
DOMAIN_11554 (protein, Nomascus leucogenys) GSLTFRDVAIEFSLEEWQCLDTAQQNLYRNVMLENYRNLVFLGIAAPKPDLIIFLEQGKEPWNVKRHEMVEEPPVICSHFA | 3.0498 | –
DOMAIN_11813 (protein, listed as Canis lupus) SKVPVTFGDLAIYFSQEEWEWLSPIQKDLYEDVMLENYQNLVSLGLSFRRPNVITLLEKGKAPWVVEPVRKRRGLDSGFKC | 3.5195 | –
DOMAIN_11749 (protein, listed as Chlorocebus sabaeus) FQEPVTFEDVAVYFTQNEWASLHPTQRALYREVMLENYANVTSLLAFPFPKPALISHLERGEAPWGPDPWDTEIPRGISQG | 3.2721 | –
DOMAIN_13468 (protein, listed as Phascolarctos cinereus) PQESVTFKDVAVDFTWEEWGYLDTSQKELYQEVMLENYRNLVSLGFVVAKPDVISQLEQGEAPWRPEGRFPRSRHPDSDTR | – | 4.1548
DOMAIN_11466 (protein, listed as Suricata suricatta) AQAPLSFEDVAVGFSPEEWQLLAPAQKDLYRDVMLENYRNLVSLGYQASKPDSLFQLEHGGPPWAVGGAAPRPPCAEEIWE | 3.4716 | –
DOMAIN_11413 (protein, listed as Sus scrofa) VREPLTFEDVAVNFTQEEWQQLDPAQKTLHRDVMLEIYSHLVSVGCSGIKPDIISKLEHGEDPWIRESELPRWTYSDREKS | 2.1814 | –
DOMAIN_11461 (protein, listed as Equus caballus) WKELLSFEDVALFFTREEWNQLDWAQKDLYRDVMLENYRNLILLGFQFPKPEVICQLEQWEEPWILDLPRAGTRKASGSAC | 2.508 | –
DOMAIN_11621 (protein, listed as Chrysochloris asiatica) KPGIVRFADVAVYFSREEWACLRPAQRALYRDVMRETYGHLGALGFPGPKPALISWMERESEAWSPAAQEPKEGENLGGAP | 3.2074 | –
DOMAIN_11505 (protein, listed as Trichechus manatus) AHELVMFRDVAIDFSKEEWECLDLEQRDLYRDVMLENYSNMVLLGLCIHQPDMFSLLEKGKEPWKVLRYQTRGPCPDMQSR | 3.0969 | –
DOMAIN_11701 (protein, listed as Capra hircus) DLDQVTFEDVVVDFTREEWGCLEPAQRTLYRDVMLETFRLLVSVGHWLPKPDVISLLEQEAELWAADEGGPRGMCPDLETR | 2.5282 | –
DOMAIN_11433 (protein, listed as Neophocaena asiaeorientalis) PQVLVSFEEVAVLLSQEEWGHLGPDQKRLYRDVMLETYGNLVSLGLQGSKPDVISKLEQGEEPWAPHSPRIEGSWIWRRRR | 3.3986 | –
DOMAIN_11672 (protein, listed as Suricata suricatta) SLEPDSFGDVAVLFSQEEWARLAPAQRELYRDVMLETYSHLVSLGLAVSKPDVISFLEQGKEPWLGEKAAAGGLGPELESR | 3.318 | –
DOMAIN_11534 (protein, listed as Sus scrofa) AQESVMFSDVSIDFSQEEWECLNDDQRALYRDVMLENYSNLVSMGHSISKPDVISFLEQGKEPWLVDRELTRGQWPVLESR | 3.8118 | –
DOMAIN_11446 (protein, Nomascus leucogenys) YQEMVTFEDVAVHFTKTEWTGLSPAQRALYRSVMLENFGNLTALGYPVPKPALISLLEGGDMDWGLEAQDDPPAERTKNVC | 2.6971 | –
DOMAIN_11726 (protein, listed as Sus scrofa) AHMAFRDVAVDFTQEEWMLLSPAQRSLYREVMLENYSNMVSLGIPFSKPKLITQLEQGKETWREERKCPPATCSAEPQPEL | 3.4183 | –
DOMAIN_11393 (protein, listed as Suricata suricatta) RPRAVKFADVAVYFSTEEWGCLRPAQRALYRDVMRETYGHLGALGCAGPKPALISWLERNTDDWEPAALDPQECPKRVTVQ | 3.4256 | –
DOMAIN_11403 (protein, listed as Suricata suricatta) KPGVLTFADVAVYFSSEEWGCLRPAQRALYRDVMRETYGHLGALGCAGPKPALISWLERNTDDWEPAALDPQECPKRVTVQ | 3.4222 | –
DOMAIN_11612 (protein, listed as Loxodonta africana) VVFTDVAVDFSQEEWECLDSYQRSLYRDVILENYSNLVSLGGGSISKPDVVTLLEQGKEPWMVVRDTKIRWSLGLESNYDA | 3.3006 | –
DOMAIN_11332 (protein, listed as Capra hircus) ARESVMFSDVSIDFSLEEWEFLNLEQRDLYRDVMLENYSNLVSLGCFISKPDVISLLEQGKEPWNVVRKGRRQYPDLETNY | 3.0468 | –
DOMAIN_11381 (protein, Nomascus leucogenys) MVQESVTFKDVAVLFTQEEWGQLSPAQRALYRDVMLENYSNLVSLGLLGPKPDMFSQLEKREVWMPEDTPGGFCLDWMTMP | 3.1705 | –
DOMAIN_11502 (protein, listed as Trichechus manatus) IHESVTFEDVAVNFTDREWQCLTHAQRHLYKDVMLENYGNMVSLGFPFPKPPLISHLERETEPWVQDLQDRESLSSFYPVS | 3.601 | –
